Assay results reported in the antibiotic and cytotoxicity screens of Wong et al. (2023).
Some of the results follow.

Each compound was assayed on HSkMC (human skeletal muscle cells) (assay: cytotoxicity call (relative viability < 0.9)). Settings: 10 µM.

Row | SMILES | cytotoxicity call
1 | Cc1noc(C)c1NC(=O)Nc1ccc2c(c1)C(=O)N([C@@H](C)CO)C[C@H](C)[C@@H](CN(C)C(=O)c1ccccc1)OCCCC[C@@H](C)O2 | inactive
2 | CN1CCN(C(=O)C[C@@H]2C=C[C@@H](NC(=O)Nc3ccccc3F)[C@@H](CO)O2)CC1 | inactive
3 | C[C@@H]1CCCCO[C@@H](CN(C)Cc2ccccc2)[C@H](C)CN([C@@H](C)CO)C(=O)c2cc(NC(=O)CCC(F)(F)F)ccc2O1 | inactive
4 | Cc1noc(C)c1NC(=O)N(C)C[C@@H]1Oc2ccc(NC(=O)CCCN(C)C)cc2C(=O)N([C@H](C)CO)C[C@@H]1C | inactive
5 | CC(C)CC#Cc1ccc2c(c1)O[C@H](CN(C)S(=O)(=O)c1ccc(F)cc1)[C@H](C)CN([C@H](C)CO)S2(=O)=O | inactive
6 | COc1ccc2c3c(n(c2c1)C)[C@@H](CO)N(C[C@]13CN(C1)C(=O)C1CCOCC1)C(=O)C1CCOCC1 | inactive
7 | CC(C)NC(=O)N(C)C[C@@H]1Oc2cc(C#Cc3ccc(F)cc3)ccc2S(=O)(=O)N([C@H](C)CO)C[C@@H]1C | inactive
8 | CSC1=NCCN1 | inactive
9 | C[C@@H]1CN([C@H](C)CO)C(=O)c2cccc(NC(=O)c3ccc(-c4nccs4)cc3)c2O[C@@H]1CN(C)C(=O)NC1CCCCC1 | inactive
10 | CC(C)CC#Cc1cnc2c(c1)C(=O)N([C@@H](C)CO)C[C@@H](C)[C@H](CN(C)C(=O)c1ccc3c(c1)OCO3)O2 | inactive
11 | CCCC#Cc1ccc2c(c1)O[C@@H](CN(C)S(=O)(=O)c1cccc(OC)c1)[C@H](C)CN([C@H](C)CO)S2(=O)=O | inactive

What follows are compounds tested on HepG2 (assay: cytotoxicity call (relative viability < 0.9)). Settings: 10 µM.

Row | SMILES | cytotoxicity call
12 | C[C@@H]1CN([C@@H](C)CO)C(=O)c2cc(NC(=O)CCN3CCOCC3)ccc2O[C@H]1CN(C)S(=O)(=O)c1cccs1 | inactive
13 | COc1ccc(S(=O)(=O)N(C)C[C@H]2OCc3cnnn3CCCC(=O)N([C@@H](C)CO)C[C@H]2C)cc1 | inactive
14 | C[C@H]1CCCCO[C@H](CN(C)Cc2ccncc2)[C@@H](C)CN([C@@H](C)CO)C(=O)c2cc(NC(=O)Nc3ccc(C(F)(F)F)cc3)ccc2O1 | active
15 | CO[C@H]1CN(C)C(=O)c2cc(NC(=O)CC(F)(F)F)ccc2OC[C@H](C)N(C(=O)C2CCOCC2)C[C@@H]1C | inactive
16 | C[C@@H]1CN([C@@H](C)CO)C(=O)c2cc(NC(=O)Cn3cnnn3)ccc2O[C@H]1CN(C)S(=O)(=O)c1cccs1 | inactive
17 | CCS(=O)(=O)NCC[C@H]1CC[C@H](NS(=O)(=O)c2cccc(F)c2)[C@@H](CO)O1 | inactive
18 | C[C@@H]1CN([C@H](C)CO)C(=O)c2cc(NC(=O)c3ccccc3)ccc2O[C@@H](C)CCCCO[C@@H]1CN(C)Cc1ccc2c(c1)OCO2 | active
19 | C[C@@H]1CN([C@H](C)CO)C(=O)c2cc(NC(=O)c3ccncc3)ccc2O[C@@H](C)CCCCO[C@@H]1CN(C)C(=O)C1CCCCC1 | inactive
20 | O/N=C/c1ccccc1C(F)(F)F | active
21 | C[C@@H]1CN([C@H](C)CO)S(=O)(=O)c2ccc(Br)cc2O[C@@H]1CN(C)S(=O)(=O)c1ccc(F)cc1 | inactive
22 | CC(C)NC(=O)N(C)C[C@@H]1Oc2ccc(NC(=O)C3CCCCC3)cc2C(=O)N([C@@H](C)CO)C[C@@H]1C | inactive
23 | CC1(C)C(=O)C=CC2(C)C1CC(=O)C1(C)C2CCC2(C)C(c3ccoc3)OC(=O)C3OC321 (stereo unspecified) | active
24 | COc1cccc(NC(=O)N(C)C[C@H]2Oc3ncc(C#Cc4cccnc4)cc3C(=O)N([C@@H](C)CO)C[C@@H]2C)c1 | inactive
25 | C[C@@H]1CN([C@@H](C)CO)C(=O)c2cccc(NC(=O)CCCCCC(=O)Nc3ccccc3N)c2O[C@@H]1CN(C)C(=O)Nc1ccc(F)cc1 | inactive
26 | C[C@@H]1CN([C@@H](C)CO)C(=O)c2cccc(NS(C)(=O)=O)c2O[C@@H]1CN(C)C(=O)Nc1ccc(F)cc1 | inactive
27 | C[C@H]1CN([C@@H](C)CO)C(=O)c2cc(Br)cnc2O[C@H]1CN(C)S(=O)(=O)c1ccccc1F | inactive
28 | C[C@@H]1CN([C@@H](C)CO)C(=O)c2cc(-c3ccncc3)cnc2O[C@H]1CN(C)Cc1ccc(Oc2ccccc2)cc1 | inactive
29 | C[C@@H]1CN([C@H](C)CO)C(=O)c2cccc(NS(C)(=O)=O)c2O[C@H]1CN(C)Cc1ccc2c(c1)OCO2 | inactive
30 | CO[C@@H]1CN(C)C(=O)c2cc(NC(=O)Nc3ccc(Cl)cc3)ccc2OC[C@H](C)N(C(=O)Nc2c(C)noc2C)C[C@H]1C | inactive
31 | C[C@@H]1CCCCO[C@@H](CN(C)S(=O)(=O)c2ccc(F)cc2)[C@@H](C)CN([C@H](C)CO)C(=O)c2cc(NC(=O)CCCCCC(=O)Nc3ccccc3N)ccc2O1 | inactive

Row | SMILES | cytotoxicity call
32 | COc1ccc(CN(C)C[C@@H]2Oc3c(NC(=O)c4ccc(-c5nccs5)cc4)cccc3C(=O)N([C@H](C)CO)C[C@H]2C)cc1 | active
33 | CCC(=O)Nc1cccc([C@@H](CCc2ccc(OC)c(OC)c2)OC(=O)[C@@H]2CCCCN2C(=O)C(=O)C(C)(C)CC)c1 | inactive
34 | O=C(C1=C[C@H](C2CC2)C[C@H](OCc2ccc(CO)cc2)O1)N1CCN(Cc2ccc3c(c2)OCO3)CC1 | inactive
35 | C[C@@H]1CN([C@@H](C)CO)C(=O)c2cc(NC(=O)CCC(F)(F)F)ccc2O[C@H]1CN(C)Cc1ccc(C(F)(F)F)cc1 | inactive
36 | COc1ccc2c3c(n(c2c1)C)[C@@H](CO)N(C[C@]13CCN(CC1)C(=O)CN(C)C)C(=O)C1CCCCC1 | inactive
37 | C[C@@H]1CN([C@H](C)CO)C(=O)c2cc(NC(=O)NC3CCCCC3)ccc2O[C@@H](C)CCCCO[C@H]1CN(C)C(=O)C1CCCCC1 | inactive
38 | Cc1noc(C)c1NC(=O)Nc1ccc2c(c1)C(=O)N([C@H](C)CO)C[C@H](C)[C@H](CN(C)C(=O)Nc1ccc3c(c1)OCO3)OCCCC[C@H](C)O2 | inactive
39 | C[C@@H]1CN([C@H](C)CO)C(=O)c2cc(NS(=O)(=O)c3ccc(Cl)cc3)ccc2O[C@H]1CN(C)Cc1ccc(C(=O)Nc2ccccc2N)cc1 | inactive
40 | C[C@H]1CCCCO[C@H](CN(C)C(=O)CCC(F)(F)F)[C@@H](C)CN([C@@H](C)CO)C(=O)c2cc(NS(=O)(=O)c3ccc(Cl)cc3)ccc2O1 | inactive
41 | Cc1noc(C)c1NC(=O)Nc1ccc2c(c1)C(=O)N([C@@H](C)CO)C[C@H](C)[C@@H](CN(C)C(=O)c1ccccc1)OCCCC[C@@H](C)O2 | inactive
42 | CN1CCN(C(=O)C[C@@H]2C=C[C@@H](NC(=O)Nc3ccccc3F)[C@@H](CO)O2)CC1 | inactive
43 | C[C@@H]1CCCCO[C@@H](CN(C)Cc2ccccc2)[C@H](C)CN([C@@H](C)CO)C(=O)c2cc(NC(=O)CCC(F)(F)F)ccc2O1 | inactive
44 | Cc1noc(C)c1NC(=O)N(C)C[C@@H]1Oc2ccc(NC(=O)CCCN(C)C)cc2C(=O)N([C@H](C)CO)C[C@@H]1C | inactive
45 | CC(C)CC#Cc1ccc2c(c1)O[C@H](CN(C)S(=O)(=O)c1ccc(F)cc1)[C@H](C)CN([C@H](C)CO)S2(=O)=O | inactive
46 | COc1ccc2c3c(n(c2c1)C)[C@@H](CO)N(C[C@]13CN(C1)C(=O)C1CCOCC1)C(=O)C1CCOCC1 | inactive
47 | CC(C)NC(=O)N(C)C[C@@H]1Oc2cc(C#Cc3ccc(F)cc3)ccc2S(=O)(=O)N([C@H](C)CO)C[C@@H]1C | inactive
48 | CSC1=NCCN1 | inactive
49 | C[C@@H]1CN([C@H](C)CO)C(=O)c2cccc(NC(=O)c3ccc(-c4nccs4)cc3)c2O[C@@H]1CN(C)C(=O)NC1CCCCC1 | inactive
50 | CC(C)CC#Cc1cnc2c(c1)C(=O)N([C@@H](C)CO)C[C@@H](C)[C@H](CN(C)C(=O)c1ccc3c(c1)OCO3)O2 | inactive
51 | CCCC#Cc1ccc2c(c1)O[C@@H](CN(C)S(=O)(=O)c1cccc(OC)c1)[C@H](C)CN([C@H](C)CO)S2(=O)=O | inactive
